The text below walks through data of patent US20250213711A1, “ANTI-CANAG ANTIBODY CONJUGATE” (IKSUDA THERAPEUTICS LIMITED, priority 2022, published 2025).

Data set [1] relates to CanAg positive Colo205 cells. In words: Flow cytometry (FACS) binding of humanised antibodies to Colo205 cells. Also noted: species or system human. Particulars: for Binding EC50 (μg/ml) MFI curve: 4° C. 60 minutes. On the procedure: The affinity of the nine humanised antibody combinations for CanAg positive Colo205 cells was evaluated by flow cytometry as follows. 20×10^5 Colo205 cells were aliquoted per well and washed once with FACS buffer (2% FBS in PBS). Humanised antibodies and isotype control antibodies (Anti-HEL-Human-IgG1 (N297A), catalog: B109801, brand: BIOINTRON) were diluted with FACS buffer diluted (8 concentrations starting at 100 μg/ml with 2-fold dilutions), then 100 μL was added to each well with cells. Cells were incubated at 4° C. for 60 minutes followed by washing with FACS buffer twice. Secondary antibody AF488 Goat anti-human IgG (H+L) (catalog: A11013, brand: Invitrogen) was diluted 1:1000 with FACS buffer, then 100 uL added to each well and incubated at 4° C. for 30 minutes. After the incubation, cells were re-suspended in 200 uL FACS buffer for flow cytometry analysis. MFI (mean fluorescence intensity) was used to calculate EC50.
A general note: In flow cytometry, cells or beads pass a laser one at a time.

The test system of data set [2] is Colo-205 cells. Put plainly: Cell Titre-Glo (CTG) in vitro activity assay, Colo-205. It is filed as cell-based, human. The conditions noted are these: 72 h, 20% heat inactivated FBS (FIG. 11). From the text:
The ADC non-binding control was an anti-CD19 ADC (DAR 2.0) composed of the same linker-drug combination as ADC-3.

Data set [3] deals with HT-29 cells. Put plainly: Cell Titre-Glo (CTG) in vitro activity assay, HT-29. Particulars: 72 h (FIG. 13). It is filed as cell-based, human. The protocol: (§1) In vitro activity was assessed using the luminescence-based Cell Titre-Glo (CTG) assay (Promega, No: G7572), which quantitates the amount of ATP present as a measure of viable cells. Specificity of cell killing was shown by incubating cells with a non-binding ADC control composed of the same payload.
(§2) Anti-CanAg ADC in vitro activity was evaluated in the colorectal cancer cell lines, Colo-205 (ATCC: CCL-222) and HT-29 (ATCC: HTB-38), the pancreatic adenocarcinoma cell line, BxPC-3 (ATCC: CRL-1687), and N87 gastric carcinoma (ATCC: CRL-5822). The ADC non-binding control was an anti-CD19 ADC (DAR 2.0) composed of the same linker-drug combination as ADC-3.
(§3) Cells were trypsinised and seeded to 96 well microplates in appropriate complete medium (Colo-205, BxPC-3 and N87-RPMI-1640 with 20% heat inactivated fetal bovine serum (FBS); HT-29-McCoy's-5A medium with 20% heat inactivated FBS) for 24 h at 37° C., 5% CO2. Cells were seeded at density of 4000 (Colo-205) or 5000 (BxPC-3, HT-29, N87) cells per well, in a volume of 100 μL. […]
(§4) For the comparison of ADC-3 with Cantuzumab ravtansine and a non-binding ADC control cells were trypsinised and seeded to 96 well microplates in appropriate complete medium (RPMI-1640 with 10% FBS) for 24 h at 37° C., 5% CO2. […] Then the plate was incubated for 20 minutes at RT followed by luminescence measurements.

Data set [4] relates to BxPC-3 cells. Put plainly: Cell Titre-Glo (CTG) in vitro activity assay, BxPC-3. The conditions noted are these: 72 h (FIG. 12). Type of data set: cell-based, human. On the procedure: as §1, §2, §3, §4
The test system of data set [5] is N87 cells. Put plainly: Cell Titre-Glo (CTG) in vitro activity assay, N87. It is filed as cell-based, human. The conditions noted are these: 72 h (FIG. 14). The protocol:
as §1, §2, §3, §4

In data set [6] the test system is Colo-205 xenograft. The conditions noted are these: single intravenous dose 1 mg/kg. On the procedure:
Mice were subcutaneously inoculated into the right flank with 5×10^6 Colo-205 cells in 0.2 mL of DPBS mixed 1:1 with BD Matrigel. […] Tumour size was measured thrice weekly in two dimensions using a calliper, and the volume was expressed in mm^3 using the formula: V=0.5 a×b^2 where a and b are the long and short diameters of the tumour, respectively (see FIGS. 17A, 18 A and 19 A). The tumour size was then used for calculations of TGI (%) values (see Table 5). TGI, representing antitumor effectiveness, were calculated using the formula TGI (%)=[1-(Vtreat-t−Vtreat-1)/(Vcontrol-t−Vcontrol-1)]×100, where Vtreat-1 and Vcontrol-1 are the mean volumes of the treated and control groups on grouping day; Vtreat-t and Vcontrol-t are the mean volumes of the treated and control groups on a given day. Animals were euthanized when tumour volumes reached 2000 mm^3. Body weight was also measured thrice weekly as a measure of compound toxicity (see FIGS. 17 B, 18 B and 19 B).

Data set [7] has as its system BxPC3 xenograft. Put plainly: In vivo efficacy study in BxPC3 xenograft model. Particulars: day 29. Also noted: species or system mice. On the procedure:
Conjugate doses of 0.4 mg/kg (5.3 nmol of conjugated drug/kg), 1 mg/kg (13 nmol of conjugated drug/kg) for ADC-2 and ADC-3, and 0.2 mg/kg (5.3 nmol of conjugated drug/kg) and 0.5 mg/kg (13 nmol of conjugated drug/kg) for Cantuzumab ravtansine were used.

Changes are numbered by the printed parent chain. Entries after “also recorded” stand apart in the source; their conditions may differ.

B1: HC1 + LC1: humanised anti-CanAg (C242) antibody, heavy chain HC1 (SEQ ID NO 5) and light chain LC1 (SEQ ID NO 8) (antibody)
heavy: QVQLVQSGAEVKKPGASVKVSCKASDYTFTYYGINWVRQAPGQGLEWMGWIDTTTGEPNYAQKLQGRVTFTLDTSASTAYMELRSLRSDDTAVYYCARRGPYNWYFDVWGQGTLVTVSS[human IgG1 constant region not shown]
light: DIVMTQTPLSLPVTPGEPASISCRSSKSLLHSNGNTYLYWYLQKPGQSPQLLIYRMSNRASGVPDRFSGSGSGTDFTLKISRVEAEDVGVYYCLQHLEYPFTFGPGTKVDIKRTVAAPSVFIFPPSDEQLKSGTASVVCLLNNFYPREAKVQWKVDNALQSGNSQESVTEQDSKDSTYSLSSTLTLSKADYEKHKVYACEVTHQGLSSPVTKSFNRGEC
As for B1, in data set [1], the “affinity for CanAg positive Colo205 cells (in words)” value (“affinity” below) is recorded as “comparable affinity” and the “Binding EC50 (μg/ml) MFI curve” value stood at 0.2737 µg/mL.

B2: ADC-2 (conjugate)
heavy: B1 heavy
light: DIVMTQTPLSLPVTPGEPASISCRSSKSLLHSNGNTYLYWYLQKPGQSPQLLIYRMSNRASGVPDRFSGSGSGTDFTLKISRVEAEDVGVYYCLQHLEYPFTFGPGTKVDIKRTVAAPSVFIFPPSDEQLKSGTASVVCLLNNFYPREAKVQWKVDNALQSGNSQESVTEQDSKDSTYSLSSTLTLSKADYEKHKVYACEVTHQGLSSPVTKSFNRGECGGGGGGGCVIM
For the molecule B2, the cell killing in data set [2], in data set [3] and in data set [4] was 100% in each case. The “in vitro activity on N87 cells (in words)” value in data set [5] is given as “very limited activity; also recorded: no specific activity”. Besides, in data set [6] (Colo-205 xenograft mice), the “toxicity (body weight)” value is “no observable toxicity”. Besides, the “TGI [%] at 15 day” value in data set [6] (Colo-205 xenograft, CB17 SCID mice, day 15) came to 103%. Further, the “TGI [%] at 29 or 32* day” value is 66.7% in data set [7] (single intravenous dose 0.4 mg/kg (5.3 nmol/kg)) and 107% in data set [7] (single intravenous dose 1 mg/kg (13 nmol/kg)).

B3: HC2 + LC1: humanised anti-CanAg (C242) antibody, heavy chain HC2 (SEQ ID NO 6) and light chain LC1 (SEQ ID NO 8) (antibody)
heavy: B1 heavy with I34M, N59S, L64F, A79V, R84S, D89E
light: B1 light
With B3, in data set [1], the “affinity” value is on record as “comparable affinity” and the “Binding EC50 (μg/ml) MFI curve” value amounted to 0.3506 µg/mL.

B4: HC3 + LC1: humanised anti-CanAg (C242) antibody, heavy chain HC3 (SEQ ID NO 7) and light chain LC1 (SEQ ID NO 8) (antibody)
heavy: B1 heavy with P41T, N59T, L64F, D73E, A76I, R84S, D89E, Q111A
light: B1 light
Take B4: in data set [1], the “affinity” value is reported as “comparable affinity” and the “Binding EC50 (μg/ml) MFI curve” value amounted to 0.2664 µg/mL.
